Some of the results follow. Read counts after selection give these values, which scatter widely. Each score is taken over the longer molecules that contain the sequence shown.
Legend:
Experiment in all cases: 6-mer SELEX enrichment z-score vs GST control; IMP3 is the RNA-binding protein IGF2BP3; higher = more enriched by binding
[1] = system: IMP3 KH1-4; conditions: construct: KH1-4 (164-579); SELEX round: R4
Description: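 SELEX-seq with GST-tagged IMP3 KH1-4 (Pro164-Lys579) and an N40 RNA pool, round 4. 6-mer z-score of sequence-tag enrichment normalised to the corresponding GST SELEX round; RNA k-mers written as DNA (T for U).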

[2] = system: IMP3 RRM1-2; conditions: construct: RRM1-2 (1-163); SELEX round: R2
Description: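 SELEX-seq with GST-tagged IMP3 RRM1-2 (Met1-Asn163) and an N40 RNA pool, round 2. 6-mer enrichment z-score normalised to GST SELEX. RNA written as DNA (T = U).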

[3] = biological target: IMP3 full-length (UniProt O00425); conditions: construct: FL IMP3 (1-579); SELEX round: R4
Description: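 SELEX-seq with GST-tagged full-length IMP3 and an N40 RNA pool, round 4. Each 6-mer is scored as an enrichment z-score of sequence tags containing it, normalised to the matching GST SELEX round. RNA written as DNA (T = U).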

[4] = system: IMP3 KH1-2; conditions: construct: KH1-2 (164-376); SELEX round: R4
Description: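 SELEX-seq with GST-tagged IMP3 KH1-2 (Pro164-Phe376) and an N40 RNA pool, round 4 (stringent 300/600 mM KCl washes). 6-mer z-score of sequence-tag enrichment normalised to the corresponding GST SELEX round; RNA k-mers written as DNA (T for U).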

[5] = system: IMP3 KH3-4; conditions: construct: KH3-4 (377-579); SELEX round: R4
Description: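 SELEX-seq with GST-tagged IMP3 KH3-4 (Pro377-Lys579) and an N40 RNA pool, round 4. 6-mer z-score of sequence-tag enrichment normalised to the corresponding GST SELEX round; RNA k-mers written as DNA (T for U).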

IMP3 RRM1-2, sequence (chain, as listed by the source): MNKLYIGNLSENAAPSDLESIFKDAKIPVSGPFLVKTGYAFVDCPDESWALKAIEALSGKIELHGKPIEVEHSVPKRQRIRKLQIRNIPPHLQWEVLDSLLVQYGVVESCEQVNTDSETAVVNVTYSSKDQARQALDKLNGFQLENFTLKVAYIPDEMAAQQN
IMP3 KH1-2, sequence (chain, as listed by the source): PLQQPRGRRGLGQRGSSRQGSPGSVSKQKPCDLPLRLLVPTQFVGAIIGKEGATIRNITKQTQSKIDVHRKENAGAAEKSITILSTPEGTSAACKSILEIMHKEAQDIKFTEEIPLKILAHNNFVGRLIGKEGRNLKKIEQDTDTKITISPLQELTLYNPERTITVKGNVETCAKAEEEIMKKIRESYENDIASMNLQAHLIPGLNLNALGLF
IMP3 KH3-4, sequence (chain, as listed by the source): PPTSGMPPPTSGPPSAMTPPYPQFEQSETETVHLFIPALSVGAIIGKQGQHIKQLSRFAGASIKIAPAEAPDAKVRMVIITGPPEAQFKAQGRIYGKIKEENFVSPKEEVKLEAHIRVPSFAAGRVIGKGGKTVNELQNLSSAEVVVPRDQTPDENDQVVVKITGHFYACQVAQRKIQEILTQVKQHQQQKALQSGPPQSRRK
IMP3 KH1-4, sequence (chain, as listed by the source): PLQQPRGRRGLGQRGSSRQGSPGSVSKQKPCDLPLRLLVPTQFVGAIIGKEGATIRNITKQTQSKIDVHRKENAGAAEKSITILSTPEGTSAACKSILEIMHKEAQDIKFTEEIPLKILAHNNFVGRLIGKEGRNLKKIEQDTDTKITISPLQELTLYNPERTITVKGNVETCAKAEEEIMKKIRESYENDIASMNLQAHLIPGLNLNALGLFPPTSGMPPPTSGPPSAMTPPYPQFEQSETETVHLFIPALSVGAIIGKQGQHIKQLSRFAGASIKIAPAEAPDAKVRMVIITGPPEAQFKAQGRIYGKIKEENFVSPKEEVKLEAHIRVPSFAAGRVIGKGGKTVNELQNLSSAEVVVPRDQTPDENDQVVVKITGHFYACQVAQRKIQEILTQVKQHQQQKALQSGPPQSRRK
UniProt O00425, sequence (O00425 whole entry): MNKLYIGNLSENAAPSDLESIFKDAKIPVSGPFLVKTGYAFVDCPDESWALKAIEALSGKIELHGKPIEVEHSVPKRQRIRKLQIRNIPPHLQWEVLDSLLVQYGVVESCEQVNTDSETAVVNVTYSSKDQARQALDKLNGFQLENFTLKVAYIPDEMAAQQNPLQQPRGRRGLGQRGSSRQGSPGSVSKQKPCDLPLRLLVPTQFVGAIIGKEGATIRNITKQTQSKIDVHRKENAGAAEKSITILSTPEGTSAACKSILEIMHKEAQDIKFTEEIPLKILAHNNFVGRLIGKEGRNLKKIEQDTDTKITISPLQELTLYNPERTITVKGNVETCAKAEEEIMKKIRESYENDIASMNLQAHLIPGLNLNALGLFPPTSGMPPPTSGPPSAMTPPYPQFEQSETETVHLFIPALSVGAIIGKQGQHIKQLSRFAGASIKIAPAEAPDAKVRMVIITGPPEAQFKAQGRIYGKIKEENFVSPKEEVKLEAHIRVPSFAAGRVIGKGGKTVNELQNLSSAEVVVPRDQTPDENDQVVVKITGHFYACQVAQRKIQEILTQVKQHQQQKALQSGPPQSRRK

Row | Sequence | 6-mer SELEX enrichment z-score [1] | 6-mer SELEX enrichment z-score [2] | 6-mer SELEX enrichment z-score [3] | 6-mer SELEX enrichment z-score [4] | 6-mer SELEX enrichment z-score [5]
1 | GTGAGC | -1.24 | -0.212 | -0.394 | -1.06 | -0.955
2 | GTATAC | -0.007 | 0.022 | -0.165 | -0.113 | 0.037
3 | GCAATT | 0.651 | 0.217 | 0.42 | 0.549 | 0.837
4 | ATTCAC | 1.66 | 1.9 | 1.82 | 1.82 | 1.17
5 | TGGAGA | 0.444 | -0.449 | -0.185 | 0.225 | 0.389
6 | GGCCTG | 0.046 | -0.091 | 0.226 | 0.09 | -0.052
7 | CTTTTC | 0.84 | 0.43 | 0.326 | 0.887 | 0.581
8 | TAGAGA | 0.255 | -0.7 | -0.366 | 0.13 | 0.698
9 | GTAACG | -0.693 | -0.571 | -0.594 | -0.696 | -0.57
10 | TCATGA | 0.536 | 0.882 | 0.885 | 0.415 | 0.482
11 | TCGGAT | 0.493 | 0.243 | 0.378 | 0.244 | 0.564
12 | ACGCTT | -0.02 | -0.035 | -0.134 | 0.113 | -0.028
13 | ATCGCG | -0.734 | 0.053 | -0.014 | -0.685 | -0.698
14 | AAGTTC | -0.105 | -0.002 | -0.201 | -0.163 | -0.017
15 | ATCTTA | 0.27 | 0.302 | 0.157 | 0.142 | 0.311
16 | CAGAGA | 0.265 | -0.262 | 0.301 | 0.267 | 0.297
17 | TTCACG | 0.236 | 0.579 | 0.634 | 0.126 | 0.06
18 | CTTGTT | -0.061 | 0.344 | -0.09 | -0.034 | 0.047
19 | CATGAT | 1.5 | 0.424 | 0.883 | 1.05 | 1.38
20 | AGCACG | 0.238 | 0.454 | 0.861 | -0.014 | -0.191
21 | GACTCG | -1.15 | -0.225 | -0.523 | -0.98 | -0.966
22 | AATTGA | 0.29 | -1.14 | -0.978 | -0.061 | 1.16
23 | TCTATT | 0.968 | 0.484 | 0.325 | 0.879 | 1.1
24 | CCTAGC | -1.13 | -0.318 | -0.788 | -1.06 | -1.18
25 | GAGGTA | -0.456 | -0.126 | -0.119 | -0.341 | -0.168
26 | TGATCT | 0.197 | 0.127 | -0.1 | 0.085 | 0.161
27 | AACCAA | -1.69 | -0.448 | -2.06 | -1.54 | -1.94
28 | ATGTTT | 0.327 | 0.129 | -0.023 | 0.221 | 0.546

Row | Sequence | 6-mer SELEX enrichment z-score [1] | 6-mer SELEX enrichment z-score [2] | 6-mer SELEX enrichment z-score [3] | 6-mer SELEX enrichment z-score [4] | 6-mer SELEX enrichment z-score [5]
29 | TTTCCA | 0.885 | 0.275 | 0.085 | 0.87 | 0.547
30 | ATCGCT | 0.44 | 0.123 | 0.201 | 0.348 | 0.23
31 | GTTACT | 0.016 | 0.246 | -0.151 | -0.009 | 0.032
32 | ACAAGG | 0.415 | 0.07 | 0.545 | 0.243 | 0.49
33 | AGGGTC | 0.188 | 0.205 | 0.466 | 0.277 | 0.319
34 | AAGACT | -0.293 | -0.945 | -1.03 | -0.319 | -0.073
35 | AAAACT | -0.89 | -1.67 | -2.22 | -0.614 | -0.313
36 | ATCGGA | 0.095 | -0.239 | 0.053 | -0.243 | 0.109
37 | ATAAAC | 1.41 | -0.723 | -0.245 | 1.6 | 2.24
38 | TCCAAC | -0.806 | 0.081 | -0.635 | -0.707 | -1.32
39 | ACGCAG | 0.072 | 0.245 | 0.549 | 0.035 | -0.164
40 | TACCTT | -0.712 | 0.087 | -0.705 | -0.633 | -0.705
41 | CATTTC | 1.13 | 1.26 | 1.37 | 1.24 | 0.716
42 | CCACCA | 0.301 | 1.23 | 0.434 | 0.313 | -0.854
43 | GTGGGG | 1.11 | 0.292 | 0.653 | 1.43 | 1.21
44 | GCCTTG | -0.73 | 0.066 | -0.383 | -0.628 | -0.628
45 | AGAGAA | 0.991 | -1.24 | -0.426 | 0.76 | 1.52
46 | TGATTG | 0.481 | -0.077 | -0.209 | 0.274 | 0.624
47 | AGCGGC | 1.58 | 0.142 | 2.14 | 1.12 | 1.7
48 | CCGGGA | -0.566 | -1.04 | -0.302 | -0.351 | -0.552
49 | AGTCGT | 0.047 | 0.112 | 0.202 | -0.047 | 0.062
50 | GTTCAC | 0.166 | 0.495 | 0.409 | 0.052 | -0.114
51 | CGTGTG | -0.265 | -0.048 | -0.295 | -0.344 | -0.262
52 | AGGTCG | 0.445 | 0.223 | 0.88 | 0.42 | 0.557
53 | ATCCCT | 0.052 | -0.186 | -0.444 | -0.068 | -0.447
54 | CAAATG | -0.305 | -0.664 | -0.747 | -0.495 | -0.163
55 | ATCTAA | 0.254 | -0.262 | -0.316 | -0.005 | 0.184

Source: the supplement of paper PMC6531468
